Experimental data taken from PubChem BioAssay AID1461 (National Center for Advancing Translational Sciences (NCATS), 2008).
The campaign covered roughly 220,000 compounds. About 2,300 (1%) were called active. This list was built around the results that the source calls inconclusive (neither active nor inactive); the mix of calls is not that of the screen. Calls follow the shape of the dose curve; as a rule, active = well fitted inhibition curve with a large enough effect; inconclusive = small, poorly fitted or top-dose-only effect, or effect the other way; inactive = no such curve, though single readings can be large or run the other way. No potency is given beside an inconclusive call; the fits are too rough.

Target: Neuropeptide S receptor (Homo sapiens) (UniProt Q6W5P4)
Chain of UniProt Q6W5P4 (Q6W5P4 whole entry, looked up): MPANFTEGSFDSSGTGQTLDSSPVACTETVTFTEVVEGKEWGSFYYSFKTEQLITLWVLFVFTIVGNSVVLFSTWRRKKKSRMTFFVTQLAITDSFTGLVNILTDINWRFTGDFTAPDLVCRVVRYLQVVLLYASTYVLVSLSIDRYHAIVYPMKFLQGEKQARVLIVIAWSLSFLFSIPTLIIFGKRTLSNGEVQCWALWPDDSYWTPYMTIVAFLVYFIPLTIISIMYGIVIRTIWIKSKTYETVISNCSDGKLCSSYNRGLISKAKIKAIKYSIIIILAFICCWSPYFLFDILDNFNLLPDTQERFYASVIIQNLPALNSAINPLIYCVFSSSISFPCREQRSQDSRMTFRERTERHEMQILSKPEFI
Assay: qHTS Assay for Antagonists of the Neuropeptide S Receptor: cAMP Signal Transduction; also: nearly all actives have a fitted effect of over 50% in size
Settings: CHO-NPSR cells, cAMP TR-FRET, antagonist mode; activity change, negative = inhibition: at 38.3 µM (top of the series) unless noted
% is scaled to controls: 0 for no effect and ±100 for the full control effect; potency is read from the fitted curve at half-maximal effect; tags tell the direction and shape of the fitted curve.

**Q.** How did the Potency turn out when `Cc1ccc(-n2c(SCC(=O)Nc3ccc4cn[nH]c4c3)nnc2-c2ccco2)cc1` was run?
**A.** The Potency was inconclusive [inhibitor, partial curve].

**Q.** How did the “activity change, negative = inhibition” value turn out when `COC(=O)c1sc(NC(=O)CCCn2nc([N+](=O)[O-])cc2C)c(C(=O)OC)c1C` was run?
**A.** The value was inactive: 3.44%.

**Q.** For `CCCCSc1nnc(-c2ccc(C)cc2)c2ccccc12`, which Potency is on record?
**A.** The Potency was inconclusive [inhibitor, single point].

**Q.** With `CC(C)NC(=O)c1sc2nc3c(c(-c4cccs4)c2c1N)CN(C)CC3` as the compound, how does the Potency read?
**A.** Its Potency is inconclusive [inhibitor, single point].

**Q.** `CCOC(=O)c1c(C)cccc1OCC(N)=O` was tested. Which “activity change, negative = inhibition” value did it give?
**A.** Its value is inactive: 0.55% [at 46.1 µM].

**Q.** For `O=C(NNS(=O)(=O)c1ccc(F)cc1)c1cnn(-c2ccccc2)c1C(F)(F)F`, which “activity change, negative = inhibition” value is on record?
**A.** The value was inactive: -7.76%.

**Q.** `O=c1c2ccccc2nnn1CSc1nc2sc3c(c2c(=O)n1CC1CCCO1)CCC3` (stereo not given) was tested. Which Potency did it give?
**A.** Its Potency is inconclusive [inhibitor, partial curve].

**Q.** `Cc1ccc(S(=O)(=O)Nc2nc(-c3ccc(F)cc3)cs2)cc1` was tested. Which Potency did it give?
**A.** The Potency was inconclusive [inhibitor, single point].

**Q.** For `CCCC(CCC)C(=O)O`, which Potency is on record?
**A.** The Potency was inconclusive [activator, full curve, poor fit].

**Q.** How did the Potency turn out when `CN1CCN(C2=C(Cl)C(=O)C(c3cnc(N4CCCCC4)s3)=C(Cl)C2=O)CC1` was run?
**A.** Its Potency is inconclusive [inhibitor, single point].

**Q.** How did the Potency turn out when `CC(C)c1ccc(C2C3CSCC=C3C(C#N)=C(N)C2(C#N)C#N)cc1` (stereo not given) was run?
**A.** The Potency was active: 10 µM.

**Q.** How did the Potency turn out when `Fc1ccc(-n2nnnc2-c2cnc(-c3cccs3)nc2C(F)(F)F)cc1` was run?
**A.** The Potency was inconclusive [inhibitor, single point].

**Q.** `COc1cc(NC(=O)c2cc3c(C)nc4ccccc4c3o2)cc(OC)c1OC` was tested. Which Potency did it give?
**A.** The Potency was inconclusive [inhibitor, single point].

**Q.** For `COc1cccc2cc(-c3nnc(SCC(=O)NCCc4ccccc4)n3C)oc12`, which Potency is on record?
**A.** The Potency was inconclusive [inhibitor, single point].

**Q.** For `CCNC(=S)NN=C1c2ccccc2-c2ccccc21`, which Potency is on record?
**A.** Its Potency is inconclusive [inhibitor, full curve, poor fit].

**Q.** How did the Potency turn out when `CCOc1ccc(CC2c3cc(OCC)c(OCC)cc3CCN2C(=O)c2cc(OC)c(OC)c(OC)c2)cc1OCC` (stereo not given) was run?
**A.** Its Potency is inconclusive [inhibitor, single point].

**Q.** How did the “activity change, negative = inhibition” value turn out when `COC(=O)c1sccc1NC(=S)N1CCN(c2cc(C)ccc2C)CC1` was run?
**A.** Its value is inactive: -6.11%.

**Q.** With `CC(C)c1nc2oc3c(NCC4CCCO4)ncnc3c2c2c1CCC2` (stereo not given) as the compound, how does the Potency read?
**A.** Its Potency is inconclusive [inhibitor, partial curve, poor fit].

**Q.** With `O=C(COC(=O)CCN1C(=O)/C(=C\C=C\c2ccccc2)SC1=S)Nc1cc(F)ccc1F` as the compound, how does the “activity change, negative = inhibition” value read?
**A.** Its value is inactive: -48.5%.

**Q.** How did the Potency turn out when `CC(=O)Nc1nc(C)c(-c2csc(Nc3ccc(O)cc3)n2)s1` was run?
**A.** The Potency was inconclusive [inhibitor, partial curve, poor fit].

**Q.** With `CN1/C(=C\C(=O)CSc2nnc(NCc3ccccc3)s2)C(C)(C)c2ccccc21` as the compound, how does the “activity change, negative = inhibition” value read?
**A.** Its value is inactive: -2.76%.

**Q.** For `N#Cc1nc(COc2ccc(F)cc2)oc1N1CCN(Cc2ccccc2)CC1`, which Potency is on record?
**A.** The Potency was inconclusive [inhibitor, partial curve].

**Q.** Which Potency does the source give for `c1ccc(-c2nc(N3CCN(c4ccccc4)CC3)nc(-n3ccnc3)n2)cc1` here?
**A.** The Potency was inconclusive [inhibitor, partial curve].

**Q.** `Cc1cc(C)nc(SCC(=O)c2cc3ccccc3oc2=O)n1` was tested. Which “activity change, negative = inhibition” value did it give?
**A.** The value was inactive: -7.23% [at 46.1 µM].

**Q.** With `CCNC(=O)/C(C#N)=C/c1c(N(Cc2ccccc2)Cc2ccccc2)nc2ccccn2c1=O` as the compound, how does the Potency read?
**A.** Its Potency is inconclusive [inhibitor, single point].

**Q.** `Nc1ccc(C23CC4CC(CC(C4)C2)C3)cc1` was tested. Which “activity change, negative = inhibition” value did it give?
**A.** The value was inactive: -11.2%.

**Q.** With `O=C(NCCc1ccc(Cl)cc1)c1ccc2nc[nH]c2c1` as the compound, how does the “activity change, negative = inhibition” value read?
**A.** Its value is inactive: -4.05%.

**Q.** With `O=C(COC(=O)C(Cc1ccccc1)NC(=O)c1ccc(Cl)cc1)c1ccc(Cl)cc1` (stereo not given) as the compound, how does the “activity change, negative = inhibition” value read?
**A.** The value was inactive: -23%.

**Q.** Which “activity change, negative = inhibition” value does the source give for `COc1ccccc1OCCSc1nnnn1-c1ccc(C)cc1` here?
**A.** The value was inactive: -9.32% [at 46.1 µM].

**Q.** How did the “activity change, negative = inhibition” value turn out when `N#Cc1ccc(NC(=O)COC(=O)C2Cc3ccccc3CN2C(=O)c2ccccc2)cc1` (stereo not given) was run?
**A.** Its value is inactive: -35.2%.

**Q.** For `O=C(CSc1nc(SCC(=O)NCc2ccccc2)n(-c2ccccc2)n1)NCc1ccccc1`, which Potency is on record?
**A.** The Potency was inconclusive [inhibitor, partial curve, poor fit].

**Q.** For `CCC1(C)CC(CCNS(=O)(=O)c2ccc(C)cc2)(c2ccc(C)cc2)CCO1` (stereo not given), which Potency is on record?
**A.** Its Potency is inconclusive [inhibitor, partial curve].

**Q.** How did the “activity change, negative = inhibition” value turn out when `COc1cccc(CN(C)c2nc(-c3cccs3)nc3ccccc23)c1` was run?
**A.** Its value is inactive: -37%.

**Q.** `CCOC(=O)c1nn(-c2ccc(Cl)cc2)c2nc(-c3ccc(C)cc3)c(C#N)c(=O)n12` was tested. Which Potency did it give?
**A.** Its Potency is inconclusive [inhibitor, full curve].

**Q.** For `Cc1cc(NC(=O)CSc2ncnc3sc(C)c(C)c23)no1`, which Potency is on record?
**A.** Its Potency is inconclusive [inhibitor, single point].
